Cytotoxicity call and growth inhibition call data for 28 compounds are collected here from the antibiotic and cytotoxicity screens of Wong et al. (2023).

Some of the results follow.

One test deals with HSkMC. Put plainly: cytotoxicity call (relative viability < 0.9). As to conditions: 10 µM.
A further test deals with HepG2. Kind of test: cytotoxicity call (relative viability < 0.9). As to conditions: 10 µM.
A further test has as its system S. aureus RN4220. Put plainly: growth inhibition call (relative growth <= 0.2). As to conditions: 50 µM.

With `C[C@@H]1CN([C@@H](C)CO)C(=O)CCCn2cc(nn2)CO[C@@H]1CN(C)S(=O)(=O)c1ccc(Oc2ccccc2)cc1`, the cytotoxicity call in the test on HSkMC and in the test on HepG2 was “inactive” in each case. Also, the growth inhibition call in the test with S. aureus RN4220 was “inactive”.
Regarding `Cc1cc(NC(=O)[C@@H]2CCCN2)no1`, the cytotoxicity call in the test on HSkMC and with HepG2 was “inactive” throughout. The growth inhibition call in the test with S. aureus RN4220 is “inactive”.
With `Cc1noc(C)c1S(=O)(=O)Nc1ccc2c(c1)C(=O)N([C@H](C)CO)C[C@@H](C)[C@H](CN(C)S(=O)(=O)c1ccccc1)O2`, the cytotoxicity call with HSkMC and in the test with HepG2 was “inactive” in each case. Moreover, the growth inhibition call in the test on S. aureus RN4220 was “inactive”.
For `C[C@@H]1CN([C@H](C)CO)C(=O)c2cc(NC(=O)CCC(F)(F)F)ccc2O[C@@H](C)CCCCO[C@H]1CN(C)C(=O)Cc1ccccc1`, the cytotoxicity call in the test on HSkMC and with HepG2 was “inactive” each time. Also, the growth inhibition call in the test with S. aureus RN4220 is “inactive”.
As for `C[C@@H]1CN([C@@H](C)CO)C(=O)c2cc(NS(C)(=O)=O)ccc2O[C@@H](C)CCCCO[C@@H]1CN(C)S(=O)(=O)c1cccs1`, the cytotoxicity call in the test with HSkMC and in the test with HepG2 was “inactive” throughout. In addition, in the test on S. aureus RN4220, the growth inhibition call was “inactive”.
Consider `O=C(C[C@@H]1C=C[C@@H](NC(=O)c2cccnc2)[C@H](CO)O1)NCc1ccncn1`, for which the cytotoxicity call in the test with HSkMC and with HepG2 was “inactive” throughout. Further, the growth inhibition call in the test with S. aureus RN4220 is “inactive”.
Regarding `C[C@H](CO)N1C[C@H](C)[C@@H](CN(C)Cc2ccc(-c3ccccc3)cc2)Oc2ccc(NC(=O)CCC(F)(F)F)cc2C1=O`, the cytotoxicity call in the test with HSkMC and in the test with HepG2 was “inactive” throughout. In addition, the growth inhibition call in the test on S. aureus RN4220 is “inactive”.
Consider `C[C@@H]1CCCCO[C@H](CN(C)S(=O)(=O)c2ccc(F)cc2)[C@@H](C)CN([C@H](C)CO)C(=O)c2cc(NS(=O)(=O)c3ccc(Cl)cc3)ccc2O1`, for which the cytotoxicity call in the test on HSkMC and with HepG2 was “inactive” throughout. Further, the growth inhibition call in the test with S. aureus RN4220 was “inactive”.
In the case of `COc1ccc(S(=O)(=O)N(C)C[C@@H]2Oc3c(NC(=O)Nc4cccc5ccccc45)cccc3C(=O)N(C(C)C)C[C@H]2C)cc1`, the cytotoxicity call in the test on HSkMC and in the test on HepG2 was “inactive” in each case. In addition, the growth inhibition call in the test on S. aureus RN4220 was “inactive”.
For `Cc1noc(C)c1NC(=O)Nc1ccc2c(c1)C(=O)N([C@@H](C)CO)C[C@H](C)[C@H](CN(C)C(=O)Nc1ccccc1)OCCCC[C@H](C)O2`, the cytotoxicity call with HSkMC and in the test with HepG2 was “inactive” each time. Besides, the growth inhibition call with S. aureus RN4220 is “inactive”.
As to `Cc1noc(C)c1S(=O)(=O)Nc1ccc2c(c1)CC(=O)N([C@H](C)CO)C[C@H](C)[C@@H](CN(C)C(=O)Nc1ccccc1)O2`, the cytotoxicity call in the test on HSkMC and in the test with HepG2 was “inactive” throughout. The growth inhibition call in the test with S. aureus RN4220 is “inactive”.
On to `COc1ccc(C=CC(=O)c2ccccc2)cc1`, for which, in the test on HSkMC, the cytotoxicity call was “inactive”. Also, the cytotoxicity call in the test on HepG2 is “active”. Moreover, the growth inhibition call in the test on S. aureus RN4220 was “inactive”.
As for `C[C@@H]1CCCCO[C@H](CN(C)C(=O)CCC(F)(F)F)[C@@H](C)CN([C@@H](C)CO)C(=O)c2cc(NC(=O)CCCCCC(=O)Nc3ccccc3N)ccc2O1`, the cytotoxicity call in the test with HSkMC and in the test on HepG2 was “inactive” each time. Besides, the growth inhibition call with S. aureus RN4220 is “inactive”.
`C[C@H](CO)N1C[C@H](C)[C@H](CN(C)Cc2cccc(C(F)(F)F)c2)Oc2ncc(/C=C/c3ccccc3)cc2C1=O`: the cytotoxicity call in the test with HSkMC and in the test on HepG2 was “active” throughout. Besides, the growth inhibition call in the test on S. aureus RN4220 is “inactive”.
On to `COc1ccc(NC(=O)Nc2ccc3c(c2)C(=O)N([C@@H](C)CO)C[C@@H](C)[C@H](CN(C)C(=O)Nc2ccc(C(F)(F)F)cc2)OCCCC[C@@H](C)O3)cc1`, for which the cytotoxicity call with HSkMC and in the test on HepG2 was “inactive” throughout. Further, the growth inhibition call in the test with S. aureus RN4220 was “inactive”.
Consider `C[C@@H]1CN([C@H](C)CO)C(=O)Cc2cc(NC(=O)Nc3cccc4ccccc34)ccc2O[C@H]1CN(C)Cc1ccc(-c2ccccc2)cc1`, for which the cytotoxicity call in the test on HSkMC and with HepG2 was “inactive” in each case. In addition, the growth inhibition call in the test with S. aureus RN4220 was “inactive”.
As for `C[C@@H]1CN([C@H](C)CO)C(=O)c2cccc(NC(=O)C3CCOCC3)c2O[C@@H]1CN(C)S(=O)(=O)c1ccc(F)cc1`, the cytotoxicity call in the test on HSkMC and in the test on HepG2 was “inactive” throughout. In the test on S. aureus RN4220, the growth inhibition call was “inactive”.
As for `COc1ccc(NC(=O)N(C)C[C@H]2OCc3ccccc3-c3c(n(C)c4ccccc34)C(=O)N([C@@H](C)CO)C[C@H]2C)c(OC)c1`, the cytotoxicity call in the test on HSkMC and in the test with HepG2 was “inactive” throughout. In addition, the growth inhibition call in the test on S. aureus RN4220 was “inactive”.
For the compound `C[C@H](CO)N1C[C@H](C)[C@@H](CN(C)Cc2ccc(Oc3ccccc3)cc2)Oc2cc(-c3ccncc3)ccc2S1(=O)=O`, the cytotoxicity call in the test on HSkMC (human skeletal muscle cells) and with HepG2 was “inactive” each time. Also, in the test with S. aureus RN4220, the growth inhibition call was “inactive”.
On to `C[C@@H]1CN([C@H](C)CO)C(=O)c2cc(NS(=O)(=O)c3cn(C)cn3)ccc2O[C@@H]1CN(C)S(=O)(=O)c1ccccc1`, for which the cytotoxicity call with HSkMC and with HepG2 was “inactive” each time. In addition, the growth inhibition call in the test on S. aureus RN4220 was “inactive”.
Take `Cc1ccc(S(=O)(=O)Nc2cccc3c2O[C@@H](CN(C)S(=O)(=O)c2cn(C)cn2)[C@H](C)CN([C@H](C)CO)C3=O)cc1`: the cytotoxicity call in the test with HSkMC and with HepG2 was “inactive” in each case. The growth inhibition call with S. aureus RN4220 was “inactive”.
For the compound `CCc1c(C)[nH]c2c1C(=O)C(CN1CCOCC1)CC2.Cl` (centres undefined), the cytotoxicity call in the test with HSkMC and in the test on HepG2 was “inactive” each time. Also, the growth inhibition call in the test on S. aureus RN4220 was “inactive”.
For `CCS(=O)(=O)Nc1ccc2c(c1)C(=O)N(C)C[C@@H](OC)[C@@H](C)CN(Cc1ccccn1)[C@H](C)CO2`, the cytotoxicity call with HSkMC and with HepG2 was “inactive” each time. Moreover, the growth inhibition call in the test on S. aureus RN4220 is “inactive”.
For `CC(=O)N1CCC(C(=O)N2CCC(n3cc(C(C)(C)N)nn3)CC2)CC1`, the cytotoxicity call with HSkMC and in the test with HepG2 was “inactive” each time. The growth inhibition call in the test on S. aureus RN4220 is “inactive”.
For `CCCNC(=O)N1C[C@H](O)COC[C@@H]2O[C@@H](CC(=O)N3CCN(C)CC3)CC[C@H]21`, the cytotoxicity call in the test with HSkMC and with HepG2 was “inactive” throughout. The growth inhibition call in the test on S. aureus RN4220 is “inactive”.
As to `C[C@H](CO)N1C[C@H](C)[C@@H](CN(C)C(=O)Nc2cccc3ccccc23)Oc2ccc(NC(=O)NC3CCCCC3)cc2C1=O`, the cytotoxicity call with HSkMC and in the test on HepG2 was “inactive” each time. For the same compound, the growth inhibition call in the test with S. aureus RN4220 was “inactive”.
Regarding `COc1ccccc1CNC(=O)C[C@@H]1C[C@@H]2c3cc(NC(=O)Cc4ccncc4)ccc3O[C@@H]2[C@H](CO)O1`, the cytotoxicity call with HSkMC and with HepG2 was “inactive” each time. Besides, in the test on S. aureus RN4220, the growth inhibition call is “inactive”.
Take `C[C@H](CO)N1C[C@H](C)[C@H](CN(C)S(C)(=O)=O)Oc2ccc(NC(=O)Nc3ccc(C(F)(F)F)cc3)cc2CC1=O`: the cytotoxicity call in the test with HSkMC and in the test with HepG2 was “inactive” in each case. The growth inhibition call in the test on S. aureus RN4220 is “inactive”.
